Measurements: patent US8980944B2 (Gemmus Pharma Inc., priority 2006, dated 2015)

Columns and labels:
[1] = Study A: tolerance and pharmacokinetics in volunteers after single oral dose; details: human volunteers, single oral dose 2, 4, 8, 16, 32, or 65 μg
Procedure: 14 volunteers were given a single oral dose of Nileprost at 2, 4, 8, 16, 32, or 65 μg. The following parameters were studied: Blood pressure, heart rate, clinical chemistry, platelet aggregation, and ECG.

[2] = Study B: single oral administration up to 375 μg in volunteers; details: human volunteers, single oral dose 50 to 375 μg; higher doses = 255 μg and 375 μg
Procedure: 12 volunteers were given a single oral dose of Nileprost at 50, 75, 112, 255 or 375 μg. The following parameters were studied: Blood pressure, heart rate, ECG, lung function, clinical chemistry and hematology, platelet aggregation, and stools.

**Q.** What does the source list for `CCCCC(C)[C@H](O)/C=C/[C@@H]1[C@H]2C/C(=C(\C#N)CCCC(=O)O)O[C@H]2C[C@H]1O` (some centres unmarked) [Nileprost]?
**A.** Tolerance (blood pressure, heart rate, clinical chemistry, platelet aggregation, ECG) [1]: No findings but enteropooling in higher doses; Tolerance (blood pressure, heart rate, ECG, lung function, clinical chemistry and hematology, platelet aggregation, stools) [2]: No findings but “painless diarrhea” in higher doses
